Our source for the binding values is article PMC5116814, “Potent, Reversible, and Specific Chemical Inhibitors of Eukaryotic Ribosome Biogenesis” (Cell, 2016).

Numbering of substitutions follows the chain as printed. Names may count otherwise. Read-outs that look alike come from different tables or passages of the source. These are yes or no findings as the source states them, for the method shown. For some assays here: Binding seen in cells or lysates may run through a third protein. Some entries that bind do so weakly or less than the wild type. For some assays here: Tags and fused reporters may be left off the sequences shown.

Assay [1] concerns the target T1, Nsa1-5FLAG (S. pombe) (UniProt O94698).
T1 sequence: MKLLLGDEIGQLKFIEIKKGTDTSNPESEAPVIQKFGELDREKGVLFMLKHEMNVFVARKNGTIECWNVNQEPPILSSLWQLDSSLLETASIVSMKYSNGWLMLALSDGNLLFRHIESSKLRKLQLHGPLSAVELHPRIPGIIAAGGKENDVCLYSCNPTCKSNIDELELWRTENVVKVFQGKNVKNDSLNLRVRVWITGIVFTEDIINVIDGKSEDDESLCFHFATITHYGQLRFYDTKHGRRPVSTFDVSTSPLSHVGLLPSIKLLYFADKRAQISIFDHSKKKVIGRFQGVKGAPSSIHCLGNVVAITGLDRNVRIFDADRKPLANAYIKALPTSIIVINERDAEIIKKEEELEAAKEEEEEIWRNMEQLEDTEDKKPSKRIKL
In words: co-IP; Rix1-5FLAG or Nsa1-5FLAG immunoprecipitated with anti-FLAG M2 antibody and Dynabeads Protein G, 1 hr at 4°C, from S. pombe whole cell extracts; western blot with anti-HA, anti-FLAG or anti-GFP; wild-type, mdn1-ts26 (6 hr at 36°C) or mdn1-F1093L cells, untreated or treated with Rbin-1 (1 uM) for the indicated times. On the technique in general: A western blot detects proteins with antibodies after separation by electrophoresis.

The target in assay [2] is T2, Rix1-5FLAG (S. pombe) (UniProt P87243).
T2 sequence: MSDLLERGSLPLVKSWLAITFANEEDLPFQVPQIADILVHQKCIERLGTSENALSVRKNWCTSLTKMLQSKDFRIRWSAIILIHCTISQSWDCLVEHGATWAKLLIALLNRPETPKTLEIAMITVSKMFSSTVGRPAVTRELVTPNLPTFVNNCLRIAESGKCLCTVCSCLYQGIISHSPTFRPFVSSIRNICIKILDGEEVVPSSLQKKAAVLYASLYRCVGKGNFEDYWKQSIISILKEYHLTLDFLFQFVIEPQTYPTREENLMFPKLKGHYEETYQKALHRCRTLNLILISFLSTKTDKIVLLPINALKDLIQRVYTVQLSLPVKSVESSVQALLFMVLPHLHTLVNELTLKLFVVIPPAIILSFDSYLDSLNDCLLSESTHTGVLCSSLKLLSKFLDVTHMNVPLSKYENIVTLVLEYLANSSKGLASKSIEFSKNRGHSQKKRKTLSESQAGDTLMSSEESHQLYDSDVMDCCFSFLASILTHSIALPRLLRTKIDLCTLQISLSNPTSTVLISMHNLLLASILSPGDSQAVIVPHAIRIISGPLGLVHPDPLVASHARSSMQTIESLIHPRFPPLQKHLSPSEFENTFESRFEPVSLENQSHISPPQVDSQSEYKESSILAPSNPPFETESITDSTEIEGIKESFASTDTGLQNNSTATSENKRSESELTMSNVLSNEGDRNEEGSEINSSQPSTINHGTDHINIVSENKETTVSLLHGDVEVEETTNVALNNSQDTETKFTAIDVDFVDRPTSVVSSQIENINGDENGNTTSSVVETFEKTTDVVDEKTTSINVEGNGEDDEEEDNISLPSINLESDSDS
The description is as above.

Assay [3] deals with T1, Nsa1-5FLAG (S. pombe). Described as above. This is another data set of the same source.
Assay [4] concerns the target T3, S. pombe Mdn1 MIDAS (4301-4717 aa) (S. pombe) (UniProt O94248).
T3 sequence: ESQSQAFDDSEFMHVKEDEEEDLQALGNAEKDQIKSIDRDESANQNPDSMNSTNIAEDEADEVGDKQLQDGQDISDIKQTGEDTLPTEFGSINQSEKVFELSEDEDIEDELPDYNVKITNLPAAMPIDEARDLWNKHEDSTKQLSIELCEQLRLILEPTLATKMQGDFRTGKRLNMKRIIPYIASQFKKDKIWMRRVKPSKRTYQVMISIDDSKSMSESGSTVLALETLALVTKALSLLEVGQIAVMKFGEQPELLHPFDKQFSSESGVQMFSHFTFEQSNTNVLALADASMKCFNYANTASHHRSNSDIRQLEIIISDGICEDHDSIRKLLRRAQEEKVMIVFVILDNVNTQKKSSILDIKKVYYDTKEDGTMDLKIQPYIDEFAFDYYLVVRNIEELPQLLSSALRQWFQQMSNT
Nature of the assay: two-hybrid; S. cerevisiae AH109; pGBKT7-mdn1 MIDAS as bait, pGADT7 MIDO constructs as prey; spotted on SC-LeuTrp (+His) and SC-LeuTrpHis (-His) plates, 2 days at 32°C.

As to GFP-Mdn1 (from UniProt O94248 1-4717), the binding result in assay [1] is listed as “binds”.

B1: GFP-Rsa4 (protein, UniProt O74855 1-502)
chain: MATLLPPKSKRQKKESLNPTTIEIPEKFPLVNVQFRASDDSNELASLLVPGNSSVRQLEALLNQLLENSDDPVPYNFALHHEDETIEIQDNLYTSVFHNGLMKTEDHLTLLYTPQAVFRVRAVTRCTASMNGHDGTIISAQFSPSTSSRLVTGSGDFTARLWDCDTQTPIATMKGHTNWVSCVAWAPDASIIATGSMDNTIRFWDPKKGSPIGDALRRHTKPIMALCWQPLHLAPDSGPYLLASGSKDNTVRIWNVKLRTLLFTLSGHTAPITCVRWGGQNWIYSSSYDKTIRIWDAKDGKCLHILKGHAARVNHLSLSTEHVLRSGAYDHTDFKPKSFSDERRKAKERYEACLKQSGERLVSASDDLQLILWDPQKSTKPITKMHGHQKVVNHASFSPDGRCIATASFDSSVRLWDGKTGKFLATLRGHVAAVYQCAWSTDSRLLVSSSQDTTLKVWDVRSKKMKFDLPGHEDQVFAVDWSPDGQRVASGGADKAVRIWSH
As to B1, the binding result in assay [2] was “binds”.

B2: Ytm1-3HA (protein, UniProt Q9URY0 1-440)
chain: MDAQSAPSGQVQVRFTTRNEDLAVGDTPIFVPTSLKRYGLSQIVNHLLKTEKPTPFDFLVQGQLLKTTLDEYIVQNGLSTESILDIEYIQSTLPPAYLASFSHDDWISGIQLTSDTILTSSYDGIARVWDKSGEIKFQSTGCGSSLKSASWHIPNQSFLTASLDQKIFHWVIEEPESMLDAEKKSSGILQTLFVGHKDIVERVRSLESSSVFISASADNTVGIWDFERSPETTLESFSSSISKKRRRKNAEFTPQAGARSPLILCEGHTGPVMDIVFSDDPSVAYSVGQDHTIKTWDLITGQNVDSKITKAPLLCVEKLTDLHLVICGSSARHIVVHDPRAGSDKIVSHTLSGHKNLVSGLSASPENPYMFASVSHDNTCRVWDVRATSGSIYTISRAEKTGSQWDKLFAVDWNKSIGIVTGGTDKQLQINQSSSFGKSE
B2: the binding entry in assay [3] and in assay [2] was “binds” each time.

B3: S. pombe Rsa4 MIDO domain (1-144 aa) (domain or fragment, UniProt O74855 1-144)
chain: MATLLPPKSKRQKKESLNPTTIEIPEKFPLVNVQFRASDDSNELASLLVPGNSSVRQLEALLNQLLENSDDPVPYNFALHHEDETIEIQDNLYTSVFHNGLMKTEDHLTLLYTPQAVFRVRAVTRCTASMNGHDGTIISAQFSP
B3: in assay [4], the binding entry was “binds”.

B4: S. pombe Rsa4 MIDO domain (1-144 aa) E105D (domain or fragment, UniProt O74855 1-144)
chain: B3 chain with E105D
B4: the binding result in assay [4] is “no binding”.

B5: Ppp1-GFP (protein, UniProt O60164 1-607)
chain: MARVKQKGKAGAARIYITRNQALKKLQLTLADFRRICILKGVYPREPKNKKKANKGSTAPVTFYYTKDIQYLLHEPIVQKFREYKVFARKLSKALGKGELETAKRLEARKPTYSLDHIIKERYPTFHDALKDIDDALSMLFLFSTMPVTDKIGAATVANCERLCAEFQHYVIRSNSLRKAFLSIKGIYYQAEIFGEQITWIVPYKFAQSVPTDVDFRIMHTFLEFYQALMGFVNFKLYNTLGLRYPPKIDVAKSESAAGLAAYELEESSSLPAIVHGNNKNARKNIATLKSKIRDIVNSDANVVEQSEKTTEDADEEPETEENLDEFKPADGADNEDSKSLVSHISSSNTSLFSNFTFFLSREVPRFSLEFVIRAFGGKVGWDPILGSGSPFSESDPVITHHICDRPHISQKYEGRIYIQPQWVYDSINKGILERTDLYACGATLPPHLSPFVKVGENDYDPEAELSAEENDDVSEALDDNISGEAVPISKKNDEPENVEQIDDAEEEDLEHQRELEAEAGGVAYSEYVKQNSKSAKKTKKRQRDTLTAEEKEEKEAKELSKMMMSNKQRKLYSKLKNENSKNENYNNALRNRKRDIEKRKKLKVEN
Regarding B5, the binding entry in assay [3] was “binds”.

B6: S. pombe Ytm1 MIDO domain (1-93 aa) (domain or fragment, UniProt Q9URY0 1-93)
chain: MDAQSAPSGQVQVRFTTRNEDLAVGDTPIFVPTSLKRYGLSQIVNHLLKTEKPTPFDFLVQGQLLKTTLDEYIVQNGLSTESILDIEYIQSTL
On to B6, for which the binding entry in assay [4] is given as “binds”.
